From patent US20210130437A1 (ALPINE IMMUNE SCIENCES, published 2021)

Assays:
[1] = target: T1, human PD-1 expressed on cells (Jurkat/PD-1 cells) (human, UniProt Q15116 21-288); experiment: flow cytometry, Jurkat/PD-1 cells
T1 construct: also called PDCD1

[2] = target: T2, human TIGIT expressed on cells (Jurkat/TIGIT cells) (human, UniProt Q495A1 22-244); experiment: flow cytometry, Jurkat/TIGIT cells
T2 sequence: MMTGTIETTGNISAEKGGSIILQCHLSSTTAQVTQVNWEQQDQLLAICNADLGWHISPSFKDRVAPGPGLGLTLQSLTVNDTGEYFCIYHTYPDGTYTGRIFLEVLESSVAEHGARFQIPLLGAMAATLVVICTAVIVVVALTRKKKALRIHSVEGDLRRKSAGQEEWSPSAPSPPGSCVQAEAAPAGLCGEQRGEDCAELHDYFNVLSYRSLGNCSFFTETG

T1 sequence (Q15116 21-288): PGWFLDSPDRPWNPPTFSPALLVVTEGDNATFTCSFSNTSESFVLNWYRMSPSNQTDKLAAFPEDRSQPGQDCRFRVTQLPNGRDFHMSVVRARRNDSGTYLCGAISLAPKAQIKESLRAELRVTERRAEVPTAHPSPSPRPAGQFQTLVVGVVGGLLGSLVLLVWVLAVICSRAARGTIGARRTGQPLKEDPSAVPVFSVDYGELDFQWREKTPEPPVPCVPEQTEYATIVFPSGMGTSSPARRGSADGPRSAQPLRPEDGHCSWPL

B1: PD-L2/CD155 Stack 11 (Fc fusion)
chain 1: WPPPGTGDVVVQAPTQVSGFLGDSVTLPCYLQVPNMEVTHVSQLTWARHGESGSMAVFHQTQGPWYAESKRLEFVAARLGAELRNASLRMFGLRVEDEGNYTCQFVTFPQRSRSVDIWLRVLGGGGSGGGGSGGGGSWPPPGTGDVVVQAPTQVSGFLGDSVTLPCYLQVPNMEVTHVSQLTWARHGESGSMAVFHQTQGPWYAESKRLEFVAARLGAELRNASLRMFGLRVEDEGNYTCQFVTFPQRSRSVDIWLRVLGGGGSGGGGSEPKSSDKTHTCPPCPAPEAEGAPSVFLFPPKPKDTLMISRTPEVTCVVVDVSHEDPEVKFNWYVDGVEVHNAKTKPREEQYNSTYRVVSVLTVLHQDWLNGKEYKCKVSNKALPAPIEKTISKAKGQPREPQVYTLPPCREEMTKNQVSLWCLVKGFYPSDIAVEWESNGQPENNYKTTPPVLDSDGSFFLYSKLTVDKSRWQQGNVFSCSVMHEALHNHYTQKSLSLSPGK
chain 2: LFTVTVPKELYIIEQGSNVTLECNFDTGSHVNLGAITASLQKVENDASPHRERATLLEEQLPLGRALFHIPQVQVRDEGQYRCIIIYGDAWDYKYLTLKVKAGGGGSGGGGSGGGGSLFTVTVPKELYIIEQGSNVTLECNFDTGSHVNLGAITASLQKVENDASPHRERATLLEEQLPLGRALFHIPQVQVRDEGQYRCIIIYGDAWDYKYLTLKVKAGGGGSGGGGS[human IgG1 Fc with changes not given here]
notes: Heterodimer; also called (CD155 IgV) (G4S)3 (CD155 IgV) (G4S)2 knob Fc and (PD-L2 IgV) (G4S)3 (PD-L2 IgV) (G4S)2 hole Fc; 1201 + 1202
Question: For B1, which “MFI at 6.25 nM” value [1] is on record?
Answer: 1760 MFI

Question: And the “MFI at 6.25 nM” value [2]?
Answer: 9640 MFI

B2: PD-L2/CD155 Stack 14 (Fc fusion)
chain 1: WPPPGTGDVVVQAPTQVSGFLGDSVTLPCYLQVPNMEVTHVSQLTWARHGESGSMAVFHQTQGPWYAESKRLEFVAARLGAELRNASLRMFGLRVEDEGNYTCQFVTFPQRSRSVDIWLRVLGGGGSGGGGSGGGGSWPPPGTGDVVVQAPTQVSGFLGDSVTLPCYLQVPNMEVTHVSQLTWARHGESGSMAVFHQTQGPWYAESKRLEFVAARLGAELRNASLRMFGLRVEDEGNYTCQFVTFPQRSRSVDIWLRVLGGGGSGGGGSEPKSSDKTHTCPPCPAPEAEGAPSVFLFPPKPKDTLMISRTPEVTCVVVDVSHEDPEVKFNWYVDGVEVHNAKTKPREEQYNSTYRVVSVLTVLHQDWLNGKEYKCKVSNKALPAPIEKTISKAKGQPREPQVYTLPPCREEMTKNQVSLWCLVKGFYPSDIAVEWESNGQPENNYKTTPPVLDSDGSFFLYSKLTVDKSRWQQGNVFSCSVMHEALHNHYTQKSLSLSPGKGGGGSGGGGSGGGGSLFTVTVPKELYIIEQGSNVTLECNFDTGSHVNLGAITASLQKVENDASPHRERATLLEEQLPLGRALFHIPQVQVRDEGQYRCIIIYGDAWDYKYLTLKVKAGGGGSGGGGSGGGGSLFTVTVPKELYIIEQGSNVTLECNFDTGSHVNLGAITASLQKVENDASPHRERATLLEEQLPLGRALFHIPQVQVRDEGQYRCIIIYGDAWDYKYLTLKVKA
chain 2: LFTVTVPKELYIIEQGSNVTLECNFDTGSHVNLGAITASLQKVENDASPHRERATLLEEQLPLGRALFHIPQVQVRDEGQYRCIIIYGDAWDYKYLTLKVKAGGGGSGGGGSGGGGSLFTVTVPKELYIIEQGSNVTLECNFDTGSHVNLGAITASLQKVENDASPHRERATLLEEQLPLGRALFHIPQVQVRDEGQYRCIIIYGDAWDYKYLTLKVKAGGGGSGGGGS[human IgG1 Fc with changes not given here]
notes: Heterodimer
Question: B2 was tested. Which “MFI at 6.25 nM” value [1] did it give?
Answer: 4820 MFI

Question: What about the “MFI at 6.25 nM” value [2] of the same binder?
Answer: 7600 MFI

B3: PD-L2/CD155 Stack 13 (Fc fusion)
chain 1: WPPPGTGDVVVQAPTQVSGFLGDSVTLPCYLQVPNMEVTHVSQLTWARHGESGSMAVFHQTQGPWYAESKRLEFVAARLGAELRNASLRMFGLRVEDEGNYTCQFVTFPQRSRSVDIWLRVLGGGGSGGGGSGGGGSWPPPGTGDVVVQAPTQVSGFLGDSVTLPCYLQVPNMEVTHVSQLTWARHGESGSMAVFHQTQGPWYAESKRLEFVAARLGAELRNASLRMFGLRVEDEGNYTCQFVTFPQRSRSVDIWLRVLGGGGSGGGGSEPKSSDKTHTCPPCPAPEAEGAPSVFLFPPKPKDTLMISRTPEVTCVVVDVSHEDPEVKFNWYVDGVEVHNAKTKPREEQYNSTYRVVSVLTVLHQDWLNGKEYKCKVSNKALPAPIEKTISKAKGQPREPQVYTLPPCREEMTKNQVSLWCLVKGFYPSDIAVEWESNGQPENNYKTTPPVLDSDGSFFLYSKLTVDKSRWQQGNVFSCSVMHEALHNHYTQKSLSLSPGKGGGGSGGGGSGGGGSLFTVTVPKELYIIEQGSNVTLECNFDTGSHVNLGAITASLQKVENDASPHRERATLLEEQLPLGRALFHIPQVQVRDEGQYRCIIIYGDAWDYKYLTLKVKAGGGGSGGGGSGGGGSLFTVTVPKELYIIEQGSNVTLECNFDTGSHVNLGAITASLQKVENDASPHRERATLLEEQLPLGRALFHIPQVQVRDEGQYRCIIIYGDAWDYKYLTLKVKA
chain 2: HMSSVSAQ[human IgG1 Fc with changes not given here]GGGGSGGGGSGGGGSLFTVTVPKELYIIEQGSNVTLECNFDTGSHVNLGAITASLQKVENDASPHRERATLLEEQLPLGRALFHIPQVQVRDEGQYRCIIIYGDAWDYKYLTLKVKAGGGGSGGGGSGGGGSLFTVTVPKELYIIEQGSNVTLECNFDTGSHVNLGAITASLQKVENDASPHRERATLLEEQLPLGRALFHIPQVQVRDEGQYRCIIIYGDAWDYKYLTLKVKA
notes: Heterodimer
Question: Which results are given for B3?
Answer: MFI at 6.25 nM [1]: 515 MFI; MFI at 6.25 nM [2]: 8300 MFI

B4: PD-L2/CD155 Stack 15 (Fc fusion)
chain 1: LFTVTVPKELYIIEQGSNVTLECNFDTGSHVNLGAITASLQKVENDASPHRERATLLEEQLPLGRALFHIPQVQVRDEGQYRCIIIYGDAWDYKYLTLKVKAGGGGSGGGGSGGGGSLFTVTVPKELYIIEQGSNVTLECNFDTGSHVNLGAITASLQKVENDASPHRERATLLEEQLPLGRALFHIPQVQVRDEGQYRCIIIYGDAWDYKYLTLKVKAGGGGSGGGGSEPKSSDKTHTCPPCPAPEAEGAPSVFLFPPKPKDTLMISRTPEVTCVVVDVSHEDPEVKFNWYVDGVEVHNAKTKPREEQYNSTYRVVSVLTVLHQDWLNGKEYKCKVSNKALPAPIEKTISKAKGQPREPQVYTLPPCREEMTKNQVSLWCLVKGFYPSDIAVEWESNGQPENNYKTTPPVLDSDGSFFLYSKLTVDKSRWQQGNVFSCSVMHEALHNHYTQKSLSLSPGKGGGGSGGGGSGGGGSWPPPGTGDVVVQAPTQVSGFLGDSVTLPCYLQVPNMEVTHVSQLTWARHGESGSMAVFHQTQGPWYAESKRLEFVAARLGAELRNASLRMFGLRVEDEGNYTCQFVTFPQRSRSVDIWLRVLGGGGSGGGGSGGGGSWPPPGTGDVVVQAPTQVSGFLGDSVTLPCYLQVPNMEVTHVSQLTWARHGESGSMAVFHQTQGPWYAESKRLEFVAARLGAELRNASLRMFGLRVEDEGNYTCQFVTFPQRSRSVDIWLRVL
chain 2: LFTVTVPKELYIIEQGSNVTLECNFDTGSHVNLGAITASLQKVENDASPHRERATLLEEQLPLGRALFHIPQVQVRDEGQYRCIIIYGDAWDYKYLTLKVKAGGGGSGGGGSGGGGSLFTVTVPKELYIIEQGSNVTLECNFDTGSHVNLGAITASLQKVENDASPHRERATLLEEQLPLGRALFHIPQVQVRDEGQYRCIIIYGDAWDYKYLTLKVKAGGGGSGGGGS[human IgG1 Fc with changes not given here]
notes: Heterodimer; also called 1200 + 1202
Question: What does the source list for B4?
Answer: MFI at 6.25 nM [1]: 11000 MFI; MFI at 6.25 nM [2]: 3340 MFI

B5: PD-L2/CD155 Stack 16 (Fc fusion)
chain 1: LFTVTVPKELYIIEQGSNVTLECNFDTGSHVNLGAITASLQKVENDASPHRERATLLEEQLPLGRALFHIPQVQVRDEGQYRCIIIYGDAWDYKYLTLKVKAGGGGSGGGGSGGGGSLFTVTVPKELYIIEQGSNVTLECNFDTGSHVNLGAITASLQKVENDASPHRERATLLEEQLPLGRALFHIPQVQVRDEGQYRCIIIYGDAWDYKYLTLKVKAGGGGSGGGGSEPKSSDKTHTCPPCPAPEAEGAPSVFLFPPKPKDTLMISRTPEVTCVVVDVSHEDPEVKFNWYVDGVEVHNAKTKPREEQYNSTYRVVSVLTVLHQDWLNGKEYKCKVSNKALPAPIEKTISKAKGQPREPQVYTLPPCREEMTKNQVSLWCLVKGFYPSDIAVEWESNGQPENNYKTTPPVLDSDGSFFLYSKLTVDKSRWQQGNVFSCSVMHEALHNHYTQKSLSLSPGKGGGGSGGGGSGGGGSWPPPGTGDVVVQAPTQVSGFLGDSVTLPCYLQVPNMEVTHVSQLTWARHGESGSMAVFHQTQGPWYAESKRLEFVAARLGAELRNASLRMFGLRVEDEGNYTCQFVTFPQRSRSVDIWLRVLGGGGSGGGGSGGGGSWPPPGTGDVVVQAPTQVSGFLGDSVTLPCYLQVPNMEVTHVSQLTWARHGESGSMAVFHQTQGPWYAESKRLEFVAARLGAELRNASLRMFGLRVEDEGNYTCQFVTFPQRSRSVDIWLRVL
chain 2: HMSSVSAQ[human IgG1 Fc with changes not given here]GGGGSGGGGSGGGGSLFTVTVPKELYIIEQGSNVTLECNFDTGSHVNLGAITASLQKVENDASPHRERATLLEEQLPLGRALFHIPQVQVRDEGQYRCIIIYGDAWDYKYLTLKVKAGGGGSGGGGSGGGGSLFTVTVPKELYIIEQGSNVTLECNFDTGSHVNLGAITASLQKVENDASPHRERATLLEEQLPLGRALFHIPQVQVRDEGQYRCIIIYGDAWDYKYLTLKVKA
notes: Heterodimer; also called 1200 + 1204
Question: With B5 as the binder, how does the “MFI at 6.25 nM” value [1] read?
Answer: 3780 MFI

Question: What about the “MFI at 6.25 nM” value [2] of the same binder?
Answer: 1480 MFI
